This is one part of the list.
system: T1, C. trachomatis L2/434/Bu expressing GFP (CTL2-GFP); design: species or system HeLa; C. trachomatis total inclusion area by high-content imaging, normalised to DMSO; conditions: total inclusion area; 28.5 h, 10 µM; inhibitor
T1 construct: L2/434/Bu GFP intracellular growth in HeLa cells
Method in brief: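 Bulk GFP and resorufin signals were read first. Wells were then fixed, stained with Hoechst and imaged to detect GFP inclusions and host nuclei. MICs followed the previously described calculation.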

Row | Structure (SMILES) | % of control remaining
1 | COCC(C)N(C)S(=O)(=O)c1ccc(Cl)nc1 (stereo not drawn) [CBK304813] | 83.9428
2 | COc1ccc(C(=O)O)cc1CN1CCOCC1 [CBK287029] | 107.774
3 | N#Cc1cccc(OCC(=O)NCC2(N3CCOCC3)CCSC2)c1 (stereo not drawn) [CBK305685] | 41.6516
4 | O=[N+]([O-])c1cccc(CNc2nccnc2-c2ccccc2F)c1 [CBK037416] | 84.6656
5 | Cc1ccc(Nc2ncc3c(n2)CCCC3=O)cc1 [CBK288143] | 83.5644
6 | CC(=O)N1CC2(CCN(C(=O)C(C)(C)C)CC2)Nc2ccccc21 [CBK284448] | 51.3804
7 | Clc1ccc2c(c1)OCC[C@@H]2Oc1cncc(N2CCNCC2)n1 [CBK172313G] | 67.8371
8 | COc1ccc(OC(=O)c2cc(S(=O)(=O)N3CCOCC3)ccc2Cl)cc1 [CBK261655] | 104.863
9 | Cn1cc(C(=O)NC(Cc2ccsc2)c2nccs2)ccc1=O (stereo not drawn) [CBK285140] | 89.5278
10 | O=C(Nc1ccc(N2CCN(C(=O)c3cccs3)CC2)cc1)c1ccc(-c2cc3ccccc3oc2=O)cc1 [CBK267340] | 99.7353
11 | Cc1nonc1CN(C)C(=O)c1ccc2c(c1)c(C)c(C)n2C [CBK281442] | 91.0811
12 | CCOc1cc(Br)ccc1S(=O)(=O)NCc1ccc2c(c1)OCO2 [CBK268813] | 121.686
13 | CCc1nn(Cc2ccncc2)c(=O)c2cc3sc(C)cc3n12 [CBK284140] | 61.1004
14 | O=C1Nc2ccccc2Oc2ccc(S(=O)(=O)N3CCOCC3)cc21 [CBK269807] | 90.8512
15 | c1cncc(COc2nccnc2N2CCCC2)c1 [CBK115890] | 96.9446
16 | CCc1nccn1CCCNC(=O)Nc1cccnc1 [CBK306736] | 73.3832
17 | CCC(O)c1nc(CCSC)nn1-c1cc(=O)n(C)c2ccccc12 (stereo not drawn) [CBK307711] | 26.0504
18 | CCCN(CC1CCCO1)C(=O)c1cc2ccc(OC)cc2n1C (stereo not drawn) [CBK282139] | 94.2907
19 | COCCCNC(=O)Cn1ccc2ccnc(-c3cccs3)c21 [CBK282303] | 93.4854
20 | CC(=O)Nc1ccc(-c2cncc(Nc3ccc4c(c3)OC(F)(F)C(F)(F)O4)n2)cc1 [CBK065726] | 106.393
21 | C=CCOc1ccc(CN(C)Cc2nc3cc(C(=O)O)ccc3c(=O)[nH]2)cc1 [CBK295156] | 116.587

Row | Structure (SMILES) | % of control remaining
22 | O=c1c(O)c(-c2ccc(F)cc2)oc2ccccc12 [CBK288369] | 32.6169
23 | CCCNC(=O)c1nn2c(C(F)(F)F)cc(-c3ccccc3)nc2c1Cl [CBK051499] | 83.7126
24 | O=C1c2ccccc2C(=O)N1c1ccc(S(=O)(=O)NCCCO)c2ccccc12 [CBK262509] | 98.3595
25 | O=C(CSc1ncn[nH]1)N/N=C/c1cn(-c2ccccc2)nc1-c1ccccc1 [CBK262850] | 49.9776
26 | Fc1ccc(COc2ccccc2CNCCN2CCOCC2)cc1 [CBK278150C] | 112.057
27 | CN(CCc1ccncc1)C(=O)c1cc2ccc(F)cc2[nH]1 [CBK283215] | 69.7744
28 | COc1ccc2[nH]c3c(=O)n(C)cnc3c2c1 [CBK025870] | 82.4434
29 | CN(C)C[C@@H]1Cc2cccc3cccc(c23)[C@@H]1O [CBK005877C] | 54.039
30 | COc1ccc(CCNC(=O)N2CCCC(C(=O)O)C2)cc1OC (stereo not drawn) [CBK161354] | 73.1534
31 | COCCN(Cc1cn2cccc(C(=O)OC)c2n1)Cc1ccco1 [CBK305366] | 31.1468
32 | Cn1c(=O)[nH]c(=O)c2c1nc(CN1CCOCC1)n2Cc1c(F)cccc1Cl [CBK270085] | 64.5105
33 | CC(C)COc1ccc(-c2nonc2NC(=O)c2ccco2)cc1 [CBK299802] | 94.7767
34 | Cc1cc(-c2cn3cc(C(=O)N4CCCC4)nc3c(=O)n2C)c(C)o1 [CBK307300] | 83.2893
35 | CS(=O)(=O)Nc1cc2ccccc2c(-c2ccc3c(c2)CCO3)n1 [CBK073773] | 102.827
36 | CCC(O)CNc1ccc(C(=O)N2CCC(N3CCOCC3)CC2)cn1 (stereo not drawn) [CBK306865] | 49.6235
37 | Cc1cc(C[C@@H]2COC[C@H]2NCc2ccc(C)c(C)c2)on1 [CBK284883] | 70.2783
38 | CN1CCN(Cc2ccccc2[N+](=O)[O-])CC1 [CBK261524] | 106.728
39 | CC(C)NC(=O)C[C@@H]1CCNC[C@@H]1Cc1cc(-c2ccccc2)on1 [CBK289147] | 114.907
40 | O=C(O)CCC(=O)N1C[C@@H]2C[C@H](C1)c1c(-c3ccc(Cl)cc3)ccc(=O)n1C2 [CBK289190] | 97.8551
41 | Cc1cc(C)cc(NC(=O)NCCc2cccs2)c1 [CBK044998] | 97.6797
42 | COc1cccc(NC(=O)c2ccnc(Cl)c2)c1 [CBK174661] | 57.2041

Row | Structure (SMILES) | % of control remaining
43 | Cc1ccc(S(=O)(=O)CC(=O)Nc2nc3ccc(C)cc3s2)cc1 [CBK287705] | 123.901
44 | Cc1ccccc1OC(C)C(=O)Nn1cnnc1 (stereo not drawn) [CBK268619] | 119.853
45 | CCOc1cc(NC2CCN(C(=O)C3(CC(C)C)CCC3)CC2)ncn1 [CBK304136] | 41.6903
46 | CCN(CC)C(=O)Cn1nc2c(C)cc3ccccc3n2c1=O [CBK283879] | 89.9112
47 | CC(C)(C(=O)N1CCC(CC(=O)NCCc2ccccc2F)CC1)c1ccc(F)cc1 [CBK286497] | 112.763
48 | CC(C)CN1CCN(S(=O)(=O)c2ccc(C(F)(F)F)cc2Cl)CC1 [CBK062740] | 120.72
49 | Cc1nc(-c2cccnc2)[nH]c(=O)c1CCC(=O)N1CC2CCC1C2 (stereo not drawn) [CBK304198] | 130.98
50 | CCc1nc2ccc(C(=O)N3CCN(C)CC3)cn2c1N(C)Cc1nccn1C [CBK146299] | 91.2965
51 | C[C@]12CN(Cc3cccc(C#Cc4ccccc4)c3)C[C@H]1C(=O)Nc1ccccc1C(=O)N2 [CBK286403] | 109.133
52 | CCCCn1c(CSc2ncccc2C(=O)O)nc2cc(S(=O)(=O)N3CCOCC3)ccc21 [CBK297558] | 69.2865
53 | CN1CCC(N2CCN(C(=O)NCCCN3CCCC3=O)CC2)CC1 [CBK156105] | 90.584
54 | O=S(=O)(Nc1nccnc1-c1ccc2c(c1)OCO2)c1cccc(Cl)c1 [CBK050951] | 92.6103
55 | COc1ccc2ccccc2c1CNCCCN1CCOCC1 [CBK278209C] | 92.4837
56 | Cc1csc2c(C3CCN(C(=O)c4ccn(C)n4)CC3)nc(C)n12 [CBK285248] | 77.4292
57 | O=C(c1cccnc1)N1CCc2ccccc21 [CBK200279] | 86.9162
58 | CCOC(=O)c1c(NC(=S)N2CCN(S(C)(=O)=O)CC2)sc(C)c1-c1ccccc1 [CBK267072] | 86.6174
59 | C=CCc1cc(C)cc(C)c1OCCN1CCN(C)CC1 [CBK269672C] | 77.3317
60 | O=C(CSc1nnc(-c2cccnc2)n1-c1ccc(Br)cc1)Nc1ccc2c(c1)OCCO2 [CBK266133] | 97.3414
61 | Nc1nnc(SCc2nc(=O)c3ccccc3[nH]2)s1 [CBK270059] | 82.2654
62 | CCS(=O)(=O)c1ccc(C(=O)Nc2nc3c(F)cc(F)cc3s2)cc1 [CBK287727] | 87.6593
63 | CN(C)CCN(C)C(=O)c1cc2cc(OC(F)(F)F)ccc2[nH]1 [CBK107316] | 67.3516

Row | Structure (SMILES) | % of control remaining
64 | CCN1CCN(C(=O)Cc2ccc(N(C)C)cc2)CC1 [CBK200253] | 100.75
65 | Cc1[nH]c(=O)c(C#N)c(C)c1CCC(=O)NCc1cn2ccccc2n1 [CBK306325] | 27.8339
66 | CC(=O)Nc1ccccc1NC(=O)CN(C)S(=O)(=O)c1ccc(Cl)cc1 [CBK267373] | 103.535
67 | CCNC(=O)Nc1cc2cccnc2nc1-c1ccc2c(c1)OCCCO2 [CBK070695] | 89.1893
68 | CC(C)(C)OC(=O)N1CCC(CNCc2c[nH]c(-c3ccccc3)n2)CC1 [CBK056718] | 120.714
69 | O=C(Nc1ccnn1Cc1cccs1)c1cc(=O)[nH]c2ccccc12 [CBK295606] | 86.8046
70 | CCOC(=O)c1cnc2nc3ccccc3n2c1C [CBK270185] | 93.1813
71 | COCc1cccc(-c2nccnc2OCc2ccccn2)c1 [CBK106953] | 91.0375
72 | COC(=O)c1ccccc1NC(=O)N1CCN(S(=O)(=O)c2ccc(Cl)cc2)CC1 [CBK266860] | 123.939
73 | CN1CCN(CC(=O)N2N=C(c3c(-c4ccccc4)c4cc(Cl)ccc4[nH]c3=O)CC2c2ccccc2)CC1 (stereo not drawn) [CBK267545] | 102.641
74 | CC(C)c1ccc(NC(=O)C2=NNC(=O)CC2)cc1 [CBK057421] | 43.4862
75 | CN1CCCN(Cc2ccc([N+](=O)[O-])s2)CC1 [CBK261558] | 93.8906
76 | O=C(O)CCNS(=O)(=O)c1ccc(Cl)c(Cl)c1 [CBK268815] | 116.342
77 | CN(C)c1ccc(CCNC(=O)c2cn3ccccc3n2)cc1 [CBK281916] | 92.9964
78 | CC(c1ccccc1)N(C)C(=O)Cn1c(-c2cccs2)n[nH]c1=S (stereo not drawn) [CBK296718] | 100.291
79 | FC(F)(F)c1ccc(CN2CCCN(c3nccc(OCc4ccc(Cl)c(Cl)c4)n3)CC2)cc1 [CBK083949] | 8.282
80 | Cc1cccc(OCC(=O)Nc2ccc(-c3nc4ncccc4o3)cc2C)c1 [CBK269287] | 109.808
81 | O=C(CCCN1C(=O)c2cccc3cccc(c23)C1=O)N1CCN(C/C=C/c2ccccc2)CC1 [CBK263300C] | 91.8585

From publication PMC12040169 (PLOS Biology, 2025)
